The source gives no read counts; variants with many changes may rest on few reads.
B1: LINE1-mini (parent)
chain: GGCAGAGCUCAACACAGCGUGGCAAAGUGGCUGUGGCUAGACUGCC

Variants of: B1
Assay: self-cleavage, relative activity (ratio to wild type); higher = more cleavage; in vitro, sequencing; the parent is a self-cleaving ribozyme

Variant | self-cleavage
C3G C15A G17A G30C C37A U43A | 0.24
C13A G30U G35C | 0.11
G2A A11U G33U | 0.04
G1U C18G G19U G33A C37U | 0.02
C8G U9C G35U | 0.02
C23G U38C G40U | 0.11
C15A C23A G35A A39C | 0.05
C18G C42G G44C | 0.03
A4U C23G U43A | 0.55
A11G C23G A26U G29C | 0
C10A C23U U34C | 0.03
A6C C23A C37A A39G C45G | 0.13
C18G G21C G27U G30A | 0.24
G7U C10A C23A | 0.01
A24C A25C C31U C46A | 0.07
G5U G19C G35A | 0.04
C3G A16G G30U C46G | 0.01
C3A C8A A26G G44U | 0.37
U9A G19A G33U U43A | 0.11
C8G A11U A24U A41C | 0.02
G2U U32G C42A | 0.02
C13A C15A G21U G22C | 0.03
C15U G22A A26G | 0.79
G27C C42G U43A | 0.11

Variant | self-cleavage
A4C A14C C18G G27C G33U | 0.1
G2U C3U C46U | 0.16
G30C C37U C45U | 0.14
C8G G22U A25G C37A | 0.02
U20G C37G C46U | 0.02
G1A C13U C18U G27C | 0.08
U9G A12U G40C A41C | 0.02
G7U C8G C10G A26C C31G | 0.02
G1A C8G C15A | 0.11
G1U G2U G5U C13U | 0.02
G1C A6U A11U C31A G33C | 0.01
G7A A11U A16C C18A A41C | 0.01
A6U A14C G17A U20G G44A | 0.01
G2A G7A A11G G30U A39G | 0.03
A6G U38A G40U | 0.14
G1A U20A C23G G27C G44A | 0.04
A14U C18G C46U | 0.09
C15A C18U U20A | 0.05
G1U U9A U28G G36A | 0.02
G1C A12C G30A U32A | 0
G1U U9A C13U C23A | 0.11
G21A U34A G40C | 0.01
A12U U20G C23G | 0.06
A4U C15U A16C C18A U28A G40A | 0.07

Variant | self-cleavage
A4C G7A C8U | 0.14
G2U A25G G29A C37U G40A C45U | 0.1
A6U G35C G36C | 0.05
C10G A16U G30A G33A A41U | 0.02
C10U U28G G29C G35U | 0.03
A6C A14U C18G G33C C42A | 0.02
G7C G22A A26C | 0.16
C18G G19C G30U | 0.7
C23G C42A C45A | 0.02
A12C C18U G21C C23U | 0.04
A6C A12C C23G | 0.14
U20G A26G G29A C46A | 0.16
C15A A24G A26U G30C U34G | 0.01
G2C C8A C15U G40C | 0
A25G G33C A41U | 0.01
C8U C15A G36A G40C | 0.12
G5A A14C G36U A41G C45G | 0.03
C23U G27A G30U | 1.28
C10G A11U C13G | 0.02
G5A C13G G22A G35A C45U | 0.35
G2C C10G C18U G33A C45U | 0.01
G7A G27C G36U | 0.07
C23A C31A C37G | 0.02
G17C A24G G30A G44U | 0.01

Variant | self-cleavage
G33U A39U G40C C45G | 0.04
C13G C18U G30U | 0.01
U9A G29A G33A | 0.13
G21U G35U G40A | 0.07
C3U A4C C10U A14G | 0.06
G5U C8G A11G G33U G36C U38G A39G | 0
G21U C31A G33U A41U | 0.08
G7U G30C G35C A39G | 0.06
G29C A41C G44U C46U | 0.01
C3A G5A C13U A14U G22C A26U | 0.71
A6U U32A C42A | 0.01
C3A C8U C42A | 0.23
G5U C13U A16U C18G G22C G29A | 0.03
G5A C23A A26C | 0.06
G5U A25U C31U | 0.04
G7A A16G C23G C37A | 0.15
U9A A16G G17U A26C | 0.04
C18U C23G C45A | 1.25
A14G G21C C23G U28G G33A | 0.02
C8U C15A C18A | 0.09
G27U U43C C45G | 0.05
C15A G22U C23A U38A | 0.05
A12G U34A G44U | 0.03
C8U C15U C42G | 0.23

Variant | self-cleavage
G7A A11C G21U A25U | 0.04
U20G A24U C37U | 0.02
G2C C15A G27A G33C G35U G44A | 0.02
G17U G21U U43C | 0.08
A11U C13A A16C C31A U43A | 0.02
A6C C31A U32C G35A C37A | 0.06
A11U C31A C45A | 0.03
G5U C13A G44A | 0.01
G5U C37A G40A | 0.23
A6G A12C G30A G44A | 0.16
G2A C10A G35U | 0.03
C8G G21U U43C | 0.01
G5A A11C U34A | 0
C3G C18G G22C G33A U38C | 0.04
G35U G44U C45G | 0.09
G5A A24C G33A G35C G36C | 0.03
G5C A24C C46G | 0.06
G2U U34A G35U | 0.01
G22C C31A G33A | 0.06
C8A A14C G19A U34C G40A | 0.03
A4G U20A U32C | 0.09
A25C G27C G40C | 0.05
C8G C13A G44U | 0.03
C3A A14U C18A G21U C23A | 0.05

Variant | self-cleavage
G2U C3A G5C C10U G22C G29A G33C | 0.03
G19C G21C G35U | 0.01
U9A C13A G17U A24G A26U C37G A41G C42G | 0.32
G2A C13U A14G A24C | 0.29
C15A U20G A26C U32C | 0.1
G1U C13A A25G C46U | 0.02
A14G G21U G29U | 0.15
G2U A11U C18G G21U | 0.03
A14U G30A A39G | 0.11
G7A A24G C31A | 0.15
A6U G7U G21U | 0.26
G1C G2C A16U | 0.01
C10G G33U G40U A41U | 0.01
G19C C31G U38G U43C | 0.01
C3G G21C G22C C37U | 1.32
G5U C18G G19A | 0.03
C8A U9G C10G A12C U28A G36U | 0
C3G A16G C31A U32A C42U C46U | 0.15
G5C C23U A39G | 0.04
U20C G35U C45U | 0.03
U20C A39C A41C C42A | 0
A16G U20G U38C | 0.02
G5C A16C G22A C23A G33U | 0.37
G1A A4G U20G | 0.23

Variant | self-cleavage
G5U C13A A26G C31U A39U C46G | 0.04
C10G G21C G36C C37A C42G | 0.01
A4G C10G G17U G30U G36A | 0.01
C8G G21U G22A G35U | 0.34
C8G G17C G29U C31G G40A | 0.02
C10G U32G G40A A41G G44C | 0.02
C15U G29U G35A | 0.05
U9C C15U G17U C23U | 0.09
A12U G19C G44A | 0.04
A4U A12C C13A A14C G17A G30U U32G | 0.01
A4U U38G A39U G44C | 0.07
C8G A16U A26G G29C | 0.01
G5U C10G A12G G21A G27U C45U | 0
A4G C8U C13U G30U G35A | 0.77
G5A C18G U20C C37G G44A C45G | 0
C10A G21C G22C C45A | 0.01
C3U U32C G36U | 0.05
A4U C10A A16C G44A | 0.02
G17U G22A G33A C37G | 0.01
A6U G19U G35U | 0.03
C10U G27A U32C C42A | 0.03
G21U G27A G29U | 0.45
G2U G17U A24U G44U | 0.05
